Experimental data: the RNAGym collection of RNA variant scans (doi:10.1101/gad.245936.114)
Variants at the floor of the assay are shown more often than the library holds them.

B1: tRNA (parent)
chain: CUCUCGGUAGCCAAGUUGGUUUAAGGCGCAAGACUUUAAUUUAUCACUACGAAAUCUUGAGAUCGGGCGUUCGACUCGCCCCCGGGAGAUUUUUUCCUCGAGCAA

Variants of: B1
Experiment: nonsense suppression (GFP-seq) (ratio to wild type); higher = more function; SUP4oc tRNA, yeast GFP reporter sort-seq
In short: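 To measure nonsense suppression, tRNA variants from a library carrying ~3% random mutations were integrated into the yeast genome alongside RFP and a GFP ochre reporter under galactose control. Growth took place in raffinose/galactose medium supplemented with 80 mg/L adenine, followed by sorting into GFP/RFP bins and Illumina sequencing of each bin (phred ≥30). For each variant with ≥100 reads and ≥30 cells, the bin median GFP/RFP values were weighted by its estimated cell share per bin and referenced to the unmutated parent tRNA.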

Nonsense suppression, ≤ 0.026:
CUCUCGGUAGCCAAGUUAGUUUAAGGCGCAAGACUUUAAUUUAUCACUACGAAAUCUUGAGAUCGGGCGUUCGACUAGCCCCCGGGAGAUUUUUUCCUCGAGCAA [G18A C77A]
CUCUCGGUAGCCAAGUUAGUUUAAGGCGCAAGACUUUAAUUUAUCACUACGAAAUCUUGAGAUCGGGCGUUCGACUCGUCCCCGGGAGAUUUUUUCCUCGAGCAA [G18A C79U]
CUCUCGGUAGCCAAGUUAGUUUAAGGCGCAAGACUUUAAUUUAUCACUACGAAAUCUUGAGAUCGGGCGUUCGACUCGCGCCCGGGAGAUUUUUUCCUCGAGCAA [G18A C80G]
CUCUCGGUAGCCAAGUUAGUUUAAGGCGCAAGACUUUAAUUUAUCACUACGAAAUCUUGAGAUCGGGCGUUCGACUCGCCGCCGGGAGAUUUUUUCCUCGAGCAA [G18A C81G]
CUCUCGGUAGCCAAGUUAGUUUAAGGCGCAAGACUUUAAUUUAUCACUACGAAAUCUUGAGAUCGGGCGUUCGACUCGCCCACGGGAGAUUUUUUCCUCGAGCAA [G18A C82A]
CUCUCGGUAGCCAAGUUAGUUUAAGGCGCAAGACUUUAAUUUAUCACUACGAAAUCUUGAGAUCGGGCGUUCGACUCGCCCCAGGGAGGUUUUUUCCUCGAGCAA [G18A C83A A89G]
CUCUCGGUAGCCAAGUUACUUUAAGGCGCAAGACUUUAAUUUAUCACUACGAAAUCUUGAGAUCGGGCGUUCGACUCGCCCCCGGGACAUUUUUUCCUCGAGCAA [G18A G19C G88C]
CUCUCGGUAGCCAAGUUAGUUUAACGCGCAAGACUUUAAUUUAUCACUACGAAAUCUUGAGAUCGGGCGUUCGACUCGCCCCAGGGAGAUUUUUUCCUCGAGCAA [G18A G25C C83A]
CUCUCGGUAGCCAAGUUAGUUUAAUGUGCAAGACUUUAAUUUAUCACUACGAAAUCUUGAGAUCGGCCGUUCGACUCGCCCCCGGGAGAUUUUUUCCUCGAGCAA [G18A G25U C27U G67C]
CUCUCGGUAGCCAAGUUAGUUUAAUGCGCAAGACUUUAAUUUAUCACUACGAAAUCUUGAGAUCGGCCGUUCGACUCGCCCCCGGGAGAUUUUUUCCUCGAGCAA [G18A G25U G67C]
CUCUCGGUAGCCAAGUUAGUUUAAGCCGCAAGACUUUAAUUUAUCACUACGAAAUCUUGAGACCGAGCGUUCGACCCGCCCCCGGGAGAUUUUUUCCUCGAGCAA [G18A G26C U63C G66A U76C]
CUCUCGGUAGCCAAGUUAGUUUAAGGCUCAAGACUUUAAUUUAUCACUACGAAAUCUUGAGAUCGGGCGUUCGACUCGCCCCCGGGAGAUUUUUUCCUCGAGCAA [G18A G28U]
CUCUCGGUAGCCAAGUUAGUUUAAGGCGCAAAACUUUAAUUUAUCACUACGAAAUCUUGAGAUCGGGCGUUCGACUCGCCCCCGGGAGAUUUUUUCCUCGAGCAA [G18A G32A]
CUCUCGGUAGCCAAGUUAGUUUAAGGCGCAAGACUUUAAUUUAUCACUACGAAAUCUUGAGAUCGGCCGUUCGACCCGCCCCCCGGAGAUUUUUUCCUCGAGCAA [G18A G67C U76C G84C]
CUCUCGGUAGCCAAGUUAGUUUAAGGCGCAAGACUUUAAUUUAUCACUACGAAAUCUUGAGAUCGGGCGUUCGACUCGCCCCCGGAAGAUUUUUUCCUCGAGCAA [G18A G86A]
CUCUCGGUAGCCAAGUUAGAUUAAGGCGCAAGGCUUUAAUUUAUCACUACGAAAUCUAGAGAUCGGGCGUUCGACUCGCCCCCGGGAGAUUUUUUCCUCGAGCAA [G18A U20A A33G U58A]
CUCUCGGUAGCCAAGUUAGUGUAAGGCGCAAGACUUUAAUUUAUCACUACGAAAUCUUGAGAUCGGGCGUUCGACUCGCCCCCGGGACAUUUUUUCCUCGAGCAA [G18A U21G G88C]
CUCUCGGUAGCCAAGUUAGUUAAAGGCGCAAGACUUUAAUUUAUCACUACGAAAUCUUAAGAUCGGGCGUUCGACUCGCCCCCGGGAGAUUUUUUCCUCGAGCAA [G18A U22A G59A]
CUCUCGGUAGCCAAGUUAGUUCAAGGCGCAAGACUUUAAUUUAUCACUACGAAAUCUUGAGAUCGGGCGUUCGACUCGCCCCCGGGAGAUUUUUUCCUCGAGCAA [G18A U22C]
CUCUCGGUAGCCAAGUUAGUUUAAGGCGCAAGACUUUAAUUUAUCACUACGAAAUCUGGAGAUCGGGCAUUCGACUUGCCCCCGGGAGAUUUUUUCCUCGAGCAA [G18A U58G G69A C77U]
CUCUCGGUAGCCAAGUUAGUUUAAGGCGCAAGACUUUAAUUUAUCACUACGAAAUCUUGAGAACGAGCGUUCGACUCGCCCCCGGGAGUUUUUUUCCUCGAGCAA [G18A U63A G66A A89U]
CUCUCGGUAGCCAAGUUAGUUUAAGGCGCAAGACUUUAAUUUAUCACUACGAAAUCUUGAGAUCGGGCGUUCGACACGCCCCCGGGAGAUUUUUUCCUCGAGCAA [G18A U76A]
CUCUCGGUAGCCAAGUUCGUUUACGGCGCAAGUCUUUAAUUUAUCACUACGAAAUCUUGAGAUCGGGCGUUCGACUCGCCCCCGGGAGAUUUUUUCCUCGAGCAA [G18C A24C A33U]
CUCUCGGUAGCCAAGUUCGUUUAAGGCGCGAGACUUUAAUUUAUCACUACGAAAUCUUGAGAUCGGGCGUUCGACUCGCCCCCGGUAGAUUUUUUCCUCGAGCAA [G18C A30G G86U]
CUCUCGGUAGCCAAGUUCGUUUAAGGCGCAGGACUUUAAUUUAUCACUACGAAAUCUUGAGAUCGGGCGUUCGACCCGCCCCCGGGAGAUUUUUUCCUCGAGCAA [G18C A31G U76C]
CUCUCGGUAGCCAAGUUCGUUUAAGGCGCAUGACUUUAAUUUAUCACUACGAAAUCUUAAGAUCGGGCGUUCGACUCGCCCCCGGGAGAUUUUUUCCUCGAGCAA [G18C A31U G59A]
CUCUCGGUAGCCAAGUUCGUUUAAGGCGCAAGGCUUUAAUUUAUCACUACGAAAUCUUGAGAUCGGGCGUUCGACUCGCCCCCGGGAGAUUUUUUCCUCGAGCAA [G18C A33G]
CUCUCGGUAGCCAAGUUCGUUUAAGGCGCAAGGCUUUAAUUUAUCACUACGAAAUCUAGAGAUCGGGCGUUCGACUCACCCCCGGGAGAUUUUUUCCUCGAGCAA [G18C A33G U58A G78A]
CUCUCGGUAGCCAAGUUCGUUUAAGGCGCAAGUCUUUAAUUUAUCACUACGAAAUCUUGAGUUCGGGCGUUCGACUCGCCCCCGGGAGAUUUUUUCCUCGAGCAA [G18C A33U A62U]
CUCUCGGUAGCCAAGUUCGUUUAAGGCGCAAGUCUUUAAUUUAUCACUACGAAAUCUUUAGAUCGGGCGUUCGACUCGCCCCCGGGAGAUUUUUUCCUCGAGCAA [G18C A33U G59U]
CUCUCGGUAGCCAAGUUCGUUUAAGGCGCAAGACUUUAAUUUAUCACUACGAAGUCUUGAGAUCGGGCGUUCGACUCGCCCCCGGGAGAUUUUUUCCUCGAGCAA [G18C A54G]
CUCUCGGUAGCCAAGUUCGUUUAAGGCGCAAGACUUUAAUUUAUCACUACGAAAUCUUGAGCUCGGGCGUUCGCCUCGCCCCCGGGAGAUUUUUUCCUCGAGCAA [G18C A62C A74C]
CUCUCGGUAGCCAAGUUCGUUUAAGGCGCAAGACUUUAAUUUAUCACUACGAAAUCUUGAGAUCGGGCGUUCGGCUCGCCCCCGGGAGAUUUUUUCCUCGAGCAA [G18C A74G]
CUCUCGGUAGCCAAGUUCGUUUAAGGCGCAAGACUUUAAUUUAUCACUACGAAAUCUUGAGAUCGGGCGUUCGACUCGCCCCCGGGCGAUUUUUUCCUCGAGCAA [G18C A87C]
CUCUCGGUAGCCAAGUUCGUUUAAGGAGCGAGACUUUAAUUUAUCACUACGAAAUCUUGAGAUCGGGCGUUCGACUCGCCCCCGGGAGAUUUUUUCCUCGAGCAA [G18C C27A A30G]
CUCUCGGUAGCCAAGUUCGUUUAAGGUGCAAGACUUUAAUUUAUCACUACGAAAUCUUGAGAUCGGGCGUUCGACUCGCCACCGGGAGAUUUUUUCCUCGAGCAA [G18C C27U C81A]
CUCUCGGUAGCCAAGUUCGUUUAAGGUACAAGACUUUAAUUUAUCACUACGAAAUCUUGAGAUCGGGUGUUCGACUCGCCCCCGGGACAUUUUUUCCUCGAGCAA [G18C C27U G28A C68U G88C]
CUCUCGGUAGCCAAGUUCGUUUAAGGCGAAAGACUUUAAUUUAUCACUACGAAAUCUUGAGAUCGGGCGUUCGACUCGCCCCCGGGAGAUUUUUUCCUCGAGCAA [G18C C29A]
CUCUCGGUAGCCAAGUUCGUUUAAGGCGUAAGACUUUAAUUUAUCACUACGAAAUCUUGAGAUCCGGCGUUCGACUCGCCCCCAGGAGAUUUUUUCCUCGAGCAA [G18C C29U G65C G84A]
CUCUCGGUAGCCAAGUUCGUUUAAGGCGUAAGACUUUAAUUUAUCACUACGAAAUCUUGAGAUCGGGCGUUCGACUCGCCCCCGAGAAAUUUUUUCCUCGAGCAA [G18C C29U G85A G88A]
CUCUCGGUAGCCAAGUUCGUUUAAGGCGCAAGAUUUUAAUUUAUCACUACGAAAUCUUGAGAUCGGGCGUUCGAGUCGCCCCCGGGAGAUUUUUUCCUCGAGCAA [G18C C34U C75G]
CUCUCGGUAGCCAAGUUCGUUUAAGGCGCAAGACUUUAAUUUAUCACUACGAAAUCUUGAGAUCGGGCGUUGGGCUCGCCCCCGGGAGAUUUUUUCCUCGAGCAA [G18C C72G A74G]
CUCUCGGUAGCCAAGUUCGUUUAAGGCGCAAGACUUUAAUUUAUCACUACGAAAUCUUGAGAUCGGGCGUUCGACUGGCCCCCGAGAGAUUUUUUCCUCGAGCAA [G18C C77G G85A]
CUCUCGGUAGCCAAGUUCGUUUAAGGCGCAAGACUUUAAUUUAUCACUACGAAAUCUUGAGAUCGGGCGUUCGACUUGCCCCCGGAAGAUUUUUUCCUCGAGCAA [G18C C77U G86A]
CUCUCGGUAGCCAAGUUCGUUUAAGGCGCAAGACUUUAAUUUAUCACUACGAAAUCUUGAGAUCGGGCGUUCGACUCGCCGCCGGGAGAUUUUUUCCUCGAGCAA [G18C C81G]
CUCUCGGUAGCCAAGUUCGUUUAAGGCGCAAGACUUUAAUUUAUCACUACGAAAUCUUGAGAUCGGGCGUUCGACUCGCCCACGGGAGAUUUUUUCCUCGAGCAA [G18C C82A]
CUCUCGGUAGCCAAGUUCAUUUAAGGCGCAAGACUUUAAUUUAUCACUACGAAAUCUUGAGAUCGAGCGUUCGACUCGCCCCCGGGAGAUUUUUUCCUCGAGCAA [G18C G19A G66A]
CUCUCGGUAGCCAAGUUCCUUUAAGGCGCAAGACUUUAAUUUAUCACUACGAAGUCUUGAGUUCGGGCGUUCGACUCGCCCCCGGGAGAUUUUUUCCUCGAGCAA [G18C G19C A54G A62U]
CUCUCGGUAGCCAAGUUCCUUUAAGGCGAAAGACUUUAAUUUAUCACUACGAAAUCUUGAGAUCGGGCGCUCGACUCGCCCCCGGGAGAUUUUUUCCUCGAGCAA [G18C G19C C29A U70C]
CUCUCGGUAGCCAAGUUCCUUUAAGGCGCAAGACUUUAAUUUAUCACUACGAAAUCUUGAGAUCGGGCGUCCGACUCGCCCCCGGGAGAUUUUUUCCUCGAGCAA [G18C G19C U71C]
CUCUCGGUAGCCAAGUUCGUUUAACGCGCGAGACUUUAAUUUAUCACUACGAAAUCUUGAGAUCGGGCGUUCGACUCGCCCCCGGGAGAUUUUUUCCUCGAGCAA [G18C G25C A30G]
CUCUCGGUAGCCAAGUUCGUUUAAGGCUCAAGACUUUAAUUUAUCACUACGAAAUCUAGAGAUCGGGCGUUCGACCCGCCCCCGUGAGAUUUUUUCCUCGAGCAA [G18C G28U U58A U76C G85U]

Nonsense suppression, 0.905:
CUCUCGGUAGCCAAGUUAGGUUAAGGCGCAAGACUUUAAUUUAUCACUACGAAAUCUUGAGAUCGGGCGUUCGACUCGCCCCCGGGAGAUUUUUUCCUCGAGCAA [G18A U20G]

Nonsense suppression, 1.05:
CUCUCGGUAGCCAAGUUCGUUUAAGGGGCAAGACUUUAAUUUAUCACUACGAAAUCUUGAGAUCGGACCUUCGACUCGCCCCCGGGAGAUUUUUUCCUCGAGCAA [G18C C27G G67A G69C]
